# Further values from the same series stand in other lists.
# System: PRISM panel of 845 cancer cell lines
# Assay: PRISM assay
# Assay type: cell-based, human
# Method: The PRISM cell set comprised 845 cell lines representing more than 45 lineages (see Supplementary Table S1 for cell line information), which largely overlapped with the Cancer Cell Line Encyclopedia; https://portals.broadinstitute.org/ccle). Cell lines were grown in RPMI without phenol red and supplemented with 10% or 20% FBS for adherent and suspended lines, respectively. Parental cell lines were stably infected with a unique 24-nucleotide DNA barcode via lentiviral transduction and blasticidin selection. After selection, barcoded cell lines were expanded and subjected to quality control (Mycoplasma contamination test, an SNP test for confirming cell line identity, and barcode ID confirmation). Approved cell lines were then pooled (20–25 cell lines per pool) based on doubling time similarity and frozen in assay-ready vials.
# RMC-6236 was added to 384-well plates at 8-point concentration with 3-fold dilutions in triplicate. These assay-ready plates were then seeded with the thawed cell line pools. Adherent cell pools were plated at 1,250 cells per well, whereas suspension and mixed adherent/suspension pools were plated at 2,000 cells per well. Treated cells were incubated for 5 days, and then lysed. Lysate plates were collapsed together prior to barcode amplification and detection.
# Each cell line's unique barcode is located in the 3′UTR of the blasticidin-resistance gene and therefore is expressed as mRNA. Total mRNA was captured using magnetic particles that recognize polyA sequences. Captured mRNA was reverse-transcribed into cDNA and then the sequence containing the unique PRISM barcode was amplified using PCR. Finally, Luminex beads that recognize the specific barcode sequences in the cell set were hybridized to the PCR products and detected using a Luminex scanner which reports the signal as a median fluorescent intensity (MFI).
# • Each detection well contained 10 control barcodes in increasing abundances as spike-in controls. For each plate, we first create a reference profile by calculating the median of the log2(MFI) values across negative control wells for each of these spiked-in barcodes. • For each well, a monotonic smooth p-spline was fitted to map the spike-in control levels to the reference profile. Next, we transform the log2(MFI) for each cell barcode using the fitted spline to allow well-to-well comparisons by correcting for amplification and detection artifacts. • Next, the separability between negative and positive control treatments was assessed. In particular, we calculated the error rate of the optimum simple threshold classifier between the control samples for each cell line and plate combination. The error rate is a measure of the overlap of the two control sets and was defined as error = (FP + FN)/n, where FP is false positives, FN is false negatives, and n is the total number of controls. A threshold was set between the distributions of positive and negative control log2(MFI) values (with everything below the threshold said to be positive and above said to be negative) such that this value is minimized. Additionally, we also calculated the dynamic range of each cell line. […] Additionally, any cell line that had less than 2 passing replicates was also omitted for the sake of reproducibility. Finally, we computed viability by normalizing with respect to the median negative control for each plate.
# For every gene with nonsilent mutations in at least four cell lines, we compared the AUC values between cells with and without those mutations using a t test. This analysis was carried out for (i) the full data set; (ii) excluding cell lines with nonsilent KRAS mutations; and (iii) excluding cell lines that have either KRAS or NRAS nonsilent mutations.
compound,measurement,setting,value
CCn1c(-c2cc(N3CCN(C)CC3)cnc2[C@H](C)OC)c2c3cc(ccc31)-c1csc(n1)C[C@H](NC(=O)[C@H]1C[C@@H]1C)C(=O)N1CCC[C@H](N1)C(=O)OCC(C)(C)C2 [RMC-6236],RMC-6236: RevMed PRISM: AUC,TGW_AUTONOMIC_GANGLIA,0.9884
same,RMC-6236: RevMed PRISM: AUC,"THP1_HAEMATOPOIETIC_AND_LYMPHOID_TISSUE, NRAS p.G12D",0.7542
same,RMC-6236: RevMed PRISM: AUC,TM31_CENTRAL_NERVOUS_SYSTEM,1
same,RMC-6236: RevMed PRISM: AUC,TOV112D_OVARY,0.7259
same,RMC-6236: RevMed PRISM: AUC,"TT1TKB_LARGE_INTESTINE, KRAS p.G12C",0.2815
same,RMC-6236: RevMed PRISM: AUC,"TT2609C02_THYROID, NRAS p.Q61R",0.5094
same,RMC-6236: RevMed PRISM: AUC,TTC709_SOFT_TISSUE,0.849
same,RMC-6236: RevMed PRISM: AUC,TT_OESOPHAGUS,0.7933
same,RMC-6236: RevMed PRISM: AUC,"TYKNU_OVARY, NRAS p.Q61K, p.G12D",0.3531
same,RMC-6236: RevMed PRISM: AUC,U2OS_BONE,0.7282
same,RMC-6236: RevMed PRISM: AUC,U87MG_CENTRAL_NERVOUS_SYSTEM,0.8256
same,RMC-6236: RevMed PRISM: AUC,U118MG_CENTRAL_NERVOUS_SYSTEM,0.7317
same,RMC-6236: RevMed PRISM: AUC,U178_CENTRAL_NERVOUS_SYSTEM,0.775
same,RMC-6236: RevMed PRISM: AUC,U251MG_CENTRAL_NERVOUS_SYSTEM,0.8027
same,RMC-6236: RevMed PRISM: AUC,U266B1_HAEMATOPOIETIC_AND_LYMPHOID_TISSUE,0.9207
same,RMC-6236: RevMed PRISM: AUC,U343_CENTRAL_NERVOUS_SYSTEM,0.7767
same,RMC-6236: RevMed PRISM: AUC,U937_HAEMATOPOIETIC_AND_LYMPHOID_TISSUE,0.5734
same,RMC-6236: RevMed PRISM: AUC,UACC62_SKIN,0.936
same,RMC-6236: RevMed PRISM: AUC,UBLC1_URINARY_TRACT,0.5777
same,RMC-6236: RevMed PRISM: AUC,UMRC7_KIDNEY,0.8383
same,RMC-6236: RevMed PRISM: AUC,UMUC1_URINARY_TRACT,0.5688
same,RMC-6236: RevMed PRISM: AUC,UMUC5_URINARY_TRACT,0.4967
same,RMC-6236: RevMed PRISM: AUC,UMUC7_URINARY_TRACT,0.8366
same,RMC-6236: RevMed PRISM: AUC,UO31_KIDNEY,0.832
same,RMC-6236: RevMed PRISM: AUC,UPCISCC072_UPPER_AERODIGESTIVE_TRACT,0.8908
same,RMC-6236: RevMed PRISM: AUC,UPCISCC111_UPPER_AERODIGESTIVE_TRACT,0.5878
same,RMC-6236: RevMed PRISM: AUC,UPCISCC116_UPPER_AERODIGESTIVE_TRACT,0.4666
same,RMC-6236: RevMed PRISM: AUC,UW228_CENTRAL_NERVOUS_SYSTEM,0.6552
same,RMC-6236: RevMed PRISM: AUC,VAESBJ_SOFT_TISSUE,1
same,RMC-6236: RevMed PRISM: AUC,VMCUB1_URINARY_TRACT,0.5496
same,RMC-6236: RevMed PRISM: AUC,VMRCRCW_KIDNEY,0.864
same,RMC-6236: RevMed PRISM: AUC,WAOSEL_HAEMATOPOIETIC_AND_LYMPHOID_TISSUE,0.624
same,RMC-6236: RevMed PRISM: AUC,WM88_SKIN,0.8371
same,RMC-6236: RevMed PRISM: AUC,WM983B_SKIN,0.861
same,RMC-6236: RevMed PRISM: AUC,WM1799_SKIN,1
same,RMC-6236: RevMed PRISM: AUC,WM2664_SKIN,1
same,RMC-6236: RevMed PRISM: AUC,"YAPC_PANCREAS, KRAS p.G12V",0.306
same,RMC-6236: RevMed PRISM: AUC,"YD8_UPPER_AERODIGESTIVE_TRACT, KRAS p.G138V",0.775
same,RMC-6236: RevMed PRISM: AUC,YSCCC_BILIARY_TRACT,0.8018
same,RMC-6236: RevMed PRISM: AUC,"ZR751_BREAST, HRAS p.E162K",0.9247
same,RMC-6236: RevMed PRISM: AUC,cell line 8MGBA_CENTRAL_NERVOUS_SYSTEM,0.9168
same,RMC-6236: RevMed PRISM: AUC,cell line 93T449_SOFT_TISSUE,0.9525
same,RMC-6236: RevMed PRISM: AUC,"cell line 143B_BONE, KRAS p.A59T",0.4977
same,RMC-6236: RevMed PRISM: AUC,"cell line 639V_URINARY_TRACT, NRAS p.H131R",0.6064
same,RMC-6236: RevMed PRISM: AUC,"cell line 697_HAEMATOPOIETIC_AND_LYMPHOID_TISSUE, NRAS p.G12D",0.581
same,RMC-6236: RevMed PRISM: AUC,cell line 5637_URINARY_TRACT,0.5972
same,RMC-6236: RevMed PRISM: AUC,cell line 8505C_THYROID,1
same,RMC-6236: RevMed PRISM: AUC,cell line 2313287_STOMACH,0.7386
same,RMC-6236: RevMed PRISM: AUC,cell line A388_SKIN,0.4378
same,RMC-6236: RevMed PRISM: AUC,cell line A2058_SKIN,0.7602
same,RMC-6236: RevMed PRISM: AUC,cell line ABC1_LUNG,0.874
same,RMC-6236: RevMed PRISM: AUC,cell line ACCMESO1_PLEURA,0.7864
same,RMC-6236: RevMed PRISM: AUC,"cell line AGS_STOMACH, KRAS p.G12D",0.427
same,RMC-6236: RevMed PRISM: AUC,cell line ALLSIL_HAEMATOPOIETIC_AND_LYMPHOID_TISSUE,0.8931
same,RMC-6236: RevMed PRISM: AUC,"cell line AN3CA_ENDOMETRIUM, HRAS p.F82L",0.7326
same,RMC-6236: RevMed PRISM: AUC,cell line BC3C_URINARY_TRACT,0.7036
same,RMC-6236: RevMed PRISM: AUC,cell line BDCM_HAEMATOPOIETIC_AND_LYMPHOID_TISSUE,0.9284
same,RMC-6236: RevMed PRISM: AUC,cell line BECKER_CENTRAL_NERVOUS_SYSTEM,0.7563
same,RMC-6236: RevMed PRISM: AUC,cell line BHY_UPPER_AERODIGESTIVE_TRACT,0.6434
same,RMC-6236: RevMed PRISM: AUC,cell line BICR22_UPPER_AERODIGESTIVE_TRACT,0.7157
same,RMC-6236: RevMed PRISM: AUC,cell line BICR56_UPPER_AERODIGESTIVE_TRACT,0.5083
same,RMC-6236: RevMed PRISM: AUC,cell line BLUE1_HAEMATOPOIETIC_AND_LYMPHOID_TISSUE,0.888
same,RMC-6236: RevMed PRISM: AUC,cell line BT12_SOFT_TISSUE,0.5192
same,RMC-6236: RevMed PRISM: AUC,cell line BT16_SOFT_TISSUE,0.723
same,RMC-6236: RevMed PRISM: AUC,cell line BT549_BREAST,1
same,RMC-6236: RevMed PRISM: AUC,cell line BV173_HAEMATOPOIETIC_AND_LYMPHOID_TISSUE,0.5147
same,RMC-6236: RevMed PRISM: AUC,cell line C32_SKIN,0.8279
same,RMC-6236: RevMed PRISM: AUC,cell line C33A_CERVIX,0.9939
same,RMC-6236: RevMed PRISM: AUC,cell line C75_LARGE_INTESTINE,0.7717
same,RMC-6236: RevMed PRISM: AUC,"cell line C8166_HAEMATOPOIETIC_AND_LYMPHOID_TISSUE, NRAS p.Q61K",0.7009
same,RMC-6236: RevMed PRISM: AUC,cell line CADOES1_BONE,1
same,RMC-6236: RevMed PRISM: AUC,cell line CAL33_UPPER_AERODIGESTIVE_TRACT,0.4806
same,RMC-6236: RevMed PRISM: AUC,"cell line CAL62_THYROID, KRAS p.G12R",0.8976
same,RMC-6236: RevMed PRISM: AUC,cell line CAS1_CENTRAL_NERVOUS_SYSTEM,0.8864
same,RMC-6236: RevMed PRISM: AUC,cell line CASKI_CERVIX,0.6908
same,RMC-6236: RevMed PRISM: AUC,cell line CBAGPN_BONE,0.689
same,RMC-6236: RevMed PRISM: AUC,cell line CCFSTTG1_CENTRAL_NERVOUS_SYSTEM,0.7893
same,RMC-6236: RevMed PRISM: AUC,cell line CCLP1_BILIARY_TRACT,0.7167
same,RMC-6236: RevMed PRISM: AUC,cell line CHLA06ATRT_SOFT_TISSUE,0.5329
same,RMC-6236: RevMed PRISM: AUC,cell line CMLT1_HAEMATOPOIETIC_AND_LYMPHOID_TISSUE,0.7091
same,RMC-6236: RevMed PRISM: AUC,cell line COGN278_AUTONOMIC_GANGLIA,0.5921
same,RMC-6236: RevMed PRISM: AUC,"cell line COLO668_LUNG, KRAS p.G12V",0.6761
same,RMC-6236: RevMed PRISM: AUC,cell line COLO800_SKIN,0.802
same,RMC-6236: RevMed PRISM: AUC,cell line COV434_OVARY,1
same,RMC-6236: RevMed PRISM: AUC,"cell line CW2_LARGE_INTESTINE, KRAS p.P140H",0.8405
same,RMC-6236: RevMed PRISM: AUC,cell line DEL_HAEMATOPOIETIC_AND_LYMPHOID_TISSUE,0.8273
same,RMC-6236: RevMed PRISM: AUC,cell line DL_SOFT_TISSUE,0.8
same,RMC-6236: RevMed PRISM: AUC,"cell line DND41_HAEMATOPOIETIC_AND_LYMPHOID_TISSUE, NRAS p.Q61H",0.8204
same,RMC-6236: RevMed PRISM: AUC,cell line DOHH2_HAEMATOPOIETIC_AND_LYMPHOID_TISSUE,0.9076
same,RMC-6236: RevMed PRISM: AUC,"cell line DV90_LUNG, KRAS p.G13D",0.3365
same,RMC-6236: RevMed PRISM: AUC,cell line EB1_HAEMATOPOIETIC_AND_LYMPHOID_TISSUE,0.7975
same,RMC-6236: RevMed PRISM: AUC,cell line EN_ENDOMETRIUM,0.893
same,RMC-6236: RevMed PRISM: AUC,cell line G401_SOFT_TISSUE,0.9303
